# PubChem BioAssay AID463173 (ICCB-Longwood Screening Facility, Harvard Medical School, 2010)
# In all, about 52,000 compounds went through this assay and about 1,700 (3.3%) were called active. Rule as the data show it: active = survival mostly below about 52% (no sharp cut-off); inactive = mostly above about 56%. This is one part of the list.
# System: Wild type
# Assay: S. aureus survival, RN4220 and DeltatarO strains – OD600, teichoic acid synthesis inhibitors, primary screen (AID 463173)
# Details: S. aureus RN4220 wild type/DeltatarO growth, OD600, 18 h, active compounds read low, screened at 18.75 µg/mL (by protocol)
row,Compound,survival
1,COc1ccc(-c2nc3n(n2)C(c2cccc(C)c2)C(C(N)=O)=C(C)N3)cc1OC (centres undefined),inactive: 73%
2,CC(=O)c1ccc(NC(=O)c2nn(C)c3c2CS(=O)(=O)c2ccccc2-3)cc1,inactive: 97%
3,CCOC(=O)C1=C(CN2CCCCC2)NC(=O)NC1c1ccc(OC)cc1 (centres undefined),inactive: 72%
4,CC1(C)Cc2ccccc2C(N/N=C/c2ccco2)=N1,inactive: 113%
5,Cc1cccc(NC(=O)c2ccc(F)c(S(=O)(=O)N3CCN(c4ccc(F)cc4)CC3)c2)c1,active: -3%
6,O=C1c2ccccc2C(=O)N1CN(Cc1ccccc1)CN1C(=O)c2ccccc2C1=O,inactive: 101%
7,Cc1ccc(-c2cn3c(n2)sc2cc(C(=O)NC4CCCCC4)ccc23)cc1,inactive: 96%
8,COc1ccc(CCNC(=O)CCn2c(=O)c3cccn3c3ccc(F)cc32)cc1OC,inactive: 64%
9,CCOc1ccccc1NC(=O)c1cn(C2CCCCC2)c(=O)c2c1c1ccccc1n2C,inactive: 94%
10,NS(=O)(=O)c1ccc(CCNC(=O)CCn2c(=O)c3cccn3c3cccnc32)cc1,inactive: 92%
11,COc1ccccc1N1CCN(CC(N)=O)CC1,inactive: 100%
12,Cc1ccc(-n2ncc(C(=O)N(C)Cc3ccccc3)c2-n2cccc2)cc1,inactive: 73%
13,Cc1cc(F)ccc1NC(=O)CN1C(=O)CCc2cc(S(=O)(=O)N3CCOCC3)ccc21,inactive: 88%
14,CC(CNC(=O)c1cc2ccccn2n1)c1ccccc1 (centres undefined),inactive: 80%
15,COc1ccc(Cl)cc1NC(=O)c1cc2nc(-c3ccc(C)cc3)cc(C(F)(F)F)n2n1,inactive: 65%
16,Cc1cc(Br)ccc1NC(=O)C(NS(=O)(=O)c1cccs1)c1ccccc1 (centres undefined),inactive: 63%
17,N#Cc1ccc(S(=O)(=O)N2CCNCC2)cc1,inactive: 114%
18,CCOC(=O)C(C)Nc1ncnc2onc(C)c12 (centres undefined),inactive: 72%
19,COc1cc(NC(=O)CCCN2C(=O)CCn3nc(-c4cn(C)c5ccccc45)cc32)cc(OC)c1,inactive: 134%
20,CSc1nc(C)cc(Nc2cccc(C(=O)O)c2)n1,inactive: 87%
21,COc1cccc(C(=O)Nc2ccc3nc(SCC(=O)N4CCc5ccccc54)sc3c2)c1,inactive: 85%
22,Cc1sc2c(c1C)c(=O)n(-c1ccc(Cl)cc1)c(=O)n2CC(=O)c1ccccc1,inactive: 76%
23,Cc1c(NC(=O)c2ccc(-c3ccc(F)cc3)o2)cccc1-c1nc2ncccc2o1,inactive: 82%

row,Compound,survival
1,CCC(=O)Nc1ccc2nc(C3CC3)n(Cc3ccc(Cl)cc3)c(=O)c2c1,inactive: 121%
2,O=C(c1cnc(N2CCCCC2)c2ccccc12)N1CCN(c2ccc(F)cc2)CC1,inactive: 85%
3,Fc1ccc(Nc2nc(-c3ccc(F)cc3)c3c(n2)-c2ccccc2OC3)cc1,inactive: 79%
4,CCOc1ccccc1CNC(=O)c1cc2oc3ccccc3c2n1CC,active: 2%
5,O=c1[nH]c2ccc(S(=O)(=O)Nc3cc(Cl)ccc3O)cc2o1,inactive: 82%
6,COc1cccc(CNC(=O)c2ccc3c(c2)sc2nc(-c4ccccc4)cn23)c1OC,inactive: 69%
7,Cc1ccc(-c2nc3scc(CCNS(=O)(=O)c4c(C)noc4C)n3n2)cc1,inactive: 128%
8,Cc1cc(C)cc(NC(=O)c2cc3c(=O)n(Cc4ccco4)ccc3nc2C)c1,inactive: 45%
9,CCC(=O)N1CCc2cc(Br)cc(S(=O)(=O)N3CCN(c4cccc(Cl)c4)CC3)c21,inactive: 68%
10,O=C(OCC1CCCO1)c1ccc2c(c1)N(Cc1cccc(F)c1)C(=O)c1ccccc1S2(=O)=O (centres undefined),inactive: 67%
11,Cc1nc2c(-c3ccc(F)cc3)c(C)nn2c(C)c1CCC(=O)NCc1cccc(Cl)c1,inactive: 84%
12,CCOc1ccc(CNC23CN4CN(CN(C4)C2)C3)cc1,inactive: 99%
13,CCN(CC)S(=O)(=O)c1ccc(N(C(=O)Cn2nnc3ccccc32)C(C(=O)NC2CCCC2)c2ccco2)cc1 (centres undefined),inactive: 112%
14,CC1CCc2nc(NC(=O)Cc3ccc(Cl)cc3)sc2C1 (centres undefined),inactive: 65%
15,CCOc1cccc(C2c3[nH]c4ccccc4c3CCN2C(=O)Cc2cccc(OCC)c2OCC)c1 (centres undefined),inactive: 88%
16,Cc1cc2c(cc1S(=O)(=O)CCC(=O)N(C)Cc1ccccc1)OCC(=O)N2,inactive: 84%
17,CSc1cccc(NC(=O)N2CCN(S(=O)(=O)c3ccc4c(ccn4C)c3)CC2)c1,inactive: 49%
18,O=S(=O)(c1ccc(Nc2ccc(-c3ccccc3)nn2)cc1)N1CCCC1,inactive: 104%
19,COc1ccc2c(CNCCc3ccccc3OC)c(C(=O)O)n(Cc3ccc(F)cc3Cl)c2c1,inactive: 95%
20,Cc1cc(C)cc(NC(=O)CN(c2cccc(C)c2C)S(=O)(=O)c2ccccc2)c1,inactive: 80%
21,O=C(CSc1nc(-c2ccccc2)no1)N1CCN(c2ccc(F)cc2)CC1,inactive: 91%
22,COc1ccc(C2=NS(=O)(=O)N(C)C(C(=O)NC(C)c3ccccc3)=C2)cc1OC (centres undefined),inactive: 88%
23,CC1=C(C(=O)OC2CCCC2)C(c2ccc(Cl)cc2)CC(=O)N1 (centres undefined),inactive: 80%

row,Compound,survival
1,O=C(c1ccccc1)N1CCN(S(=O)(=O)N2CCOCC2)CC1,inactive: 122%
2,COc1cccc(N2C(=O)CSC23C(=O)N(Cc2ccccc2F)c2ccccc23)c1 (centres undefined),inactive: 76%
3,COc1ccc(-c2nc(SCCOc3cc(C)ccc3C(C)C)n3[nH]c(=O)cc3n2)cc1,inactive: 65%
4,Cc1cccc(NC(=O)C2CCN(S(=O)(=O)c3c(C)noc3/C=C/c3ccco3)CC2)c1C,inactive: 85%
5,O=C(O)CSc1nc2ccc(Cl)cc2[nH]1,inactive: 110%
6,CCOc1cc(Cl)c(S(=O)(=O)n2cc(C)nc2CC)cc1Cl,active: -7%
7,O=C(NCC(c1ccco1)S(=O)(=O)c1cccs1)c1ccc(C(F)(F)F)cc1 (centres undefined),inactive: 83%
8,COc1cccc(NC(=O)Nc2cc(-c3cn4cccnc4n3)ccc2OC)c1,inactive: 76%
9,CCn1cc2nc(SCc3ccccc3)n(Cc3ccc(C)cc3)c(=O)c2n1,inactive: 92%
10,CN(C)c1ccc(CNS(=O)(=O)c2csc(C(N)=O)c2)cc1,inactive: 90%
11,Cc1ccccc1NC(=O)CSc1nc2ccc(NC(=O)c3ccco3)cc2s1,inactive: 56%
12,COC(=O)C1(CO)NC(c2ccc(Cl)cc2)C2C(=O)N(C)C(=O)C21 (centres undefined),inactive: 108%
13,Clc1ccc(-c2noc3ncnc(N4CCCCC4)c23)cc1,inactive: 81%
14,COc1ccc(C)cc1NC(=O)c1cc(S(=O)(=O)NCCC2=CCCCC2)ccc1F,inactive: 79%
15,COc1ccc(-c2noc(CSc3nnc(C)n3-c3ccc(C)cc3)n2)cc1,inactive: 84%
16,CCCSc1nc2c(c(=O)[nH]1)C(c1ccc(O)c(OCC)c1)CC(=O)N2 (centres undefined),inactive: 108%
17,Cn1c(=O)c2c(nc(NCc3ccccc3)n2Cc2ccc(Cl)c(Cl)c2)n(C)c1=O,inactive: 80%
18,O=C(NCCOc1ccccc1Cl)c1ncn[nH]1,inactive: 121%
19,COc1ccc(C(=O)NCCc2nc3ccccc3[nH]2)cc1,inactive: 137%
20,COc1ccc(N2CC(C(=O)Nc3ccccc3-c3nc(-c4ccc(C)cc4)no3)CC2=O)cc1 (centres undefined),inactive: 88%
21,CCOc1ccc(C(CC(=O)Nc2ccc(C(=O)OC)cc2)N2Cc3ccccc3C2=O)cc1OC (centres undefined),inactive: 45%
22,CC(C)(C)c1ccc(OCc2cc(=O)n3c4c(sc3n2)CCCC4)cc1,inactive: 84%
23,Cc1ccccc1CSCc1ccc(C(=O)NCCc2ccccc2)o1,inactive: 77%

row,Compound,survival
1,COc1cccc(NC(=O)c2oc3ccc(S(=O)(=O)N4CCC5(CC4)OCCO5)cc3c2C)c1,inactive: 119%
2,CCOc1ccccc1Nc1nc(N)nc(CN(C)C2CCCCC2)n1,inactive: 112%
3,CCc1ccc(-n2nc(C)c3c(C)cc(=O)n(CC(=O)N(CC)Cc4ccccc4)c32)cc1,inactive: 97%
4,CCc1ccc(C(=O)c2cn(Cc3ccccc3)c3cc(OC)c(OC)cc3c2=O)cc1,inactive: 97%
5,O=C(COc1ccc(F)cc1)OCc1cc(=O)n2nc(C3CC3)sc2n1,inactive: 70%
6,Cc1ccc(CCNC(=O)C2CCCN(S(=O)(=O)c3ccc4c(c3)oc(=O)n4C)C2)cc1 (centres undefined),inactive: 87%
7,COc1ccccc1NC(=O)CSc1nc(-c2cccc(Cl)c2)nc2c1Cc1c(CO)cnc(C)c1O2,inactive: 90%
8,CCOc1ccc(CCNC(=O)CCSCc2cccc(Cl)c2)cc1OCC,inactive: 71%
9,Oc1c(C(c2ccc(Cl)cc2Cl)N2CCCC2)sc2nc(-c3ccco3)nn12 (centres undefined),inactive: 54%
10,CCCCOC(=O)c1ccc(Nc2nc3ccc(C)cc3n3cnnc23)cc1,inactive: 77%
11,CCc1ccccc1NC(=O)COC(=O)c1cn(CC)c2nc(C)ccc2c1=O,inactive: 83%
12,O=C(Nc1cc(Cl)ccc1O)c1cc2nc(-c3ccc4c(c3)OCO4)cc(C(F)(F)F)n2n1,inactive: 93%
13,CN(C)c1ccc(NC(=O)C2(c3cccs3)CCOCC2)cc1,inactive: 127%
14,COC(=O)C1C2C=CC3(CN(C4CCCC4)C(=O)C13)O2 (centres undefined),inactive: 109%
15,O=C(CSCc1ccc(F)cc1)N1CCc2c([nH]c3ccccc23)C1c1ccccc1 (centres undefined),inactive: 75%
16,CCCOc1ccc(Cn2c(=O)sc3ccccc32)cc1,active: -4%
17,COc1ccccc1NC(=O)c1c(NC(=O)c2cccs2)sc2c1CCC(C(C)(C)C)C2 (centres undefined),inactive: 118%
18,Cc1cccc(N2CCN(C(=O)c3ccc4c(c3)N(Cc3cccc(Cl)c3)C(=O)c3ccccc3S4=O)CC2)c1C (centres undefined),inactive: 128%
19,Cc1ccc(-c2nc(SCC(=O)Nc3cc(C)on3)c3c(=O)n(C)c(=O)n(C)c3n2)cc1,inactive: 92%
20,O=C(CC(=O)Nc1ccccc1F)Nc1ccc2nc3n(c(=O)c2c1)CCCCC3,inactive: 76%
